{"source": "PubChem BioAssay AID463173", "about": "(ICCB-Longwood Screening Facility, Harvard Medical School, 2010)", "note": "In all, about 52,000 compounds went through this assay and about 4,300 (8.3%) were called active. Cut-off read from the data, not from the text of the source: active = survival mostly below about 52% (no sharp cut-off); inactive = mostly above about 56%. Some of the results follow.", "data": [{"test_system": "DeltatarO mutant", "test": "S. aureus survival, RN4220 and DeltatarO strains – OD600, teichoic acid synthesis inhibitors, primary screen (AID 463173)", "conditions": "S. aureus RN4220 wild type/DeltatarO growth, OD600, 18 h, active compounds read low, screened at 18.75 µg/mL (by protocol)", "values": [{"smiles": "COc1ccc(-c2cc(C(F)(F)F)n3nc(C(=O)Nc4cccc(Cl)c4Cl)cc3n2)cc1OC", "survival": "inactive: 123%"}, {"smiles": "CCOC(=O)c1cc(-c2ccc(C)cc2)n(CC(=O)Nc2cc(C)ccc2C)c1C", "survival": "inactive: 90%"}, {"smiles": "CN(C)S(=O)(=O)c1ccc2c(c1)oc(=O)n2C", "survival": "inactive: 100%"}, {"smiles": "CC(C)OC(=O)c1ccc(N)cc1", "survival": "inactive: 89%"}, {"smiles": "CCc1ccccc1NC(=O)c1cc(S(=O)(=O)N2CCC(C)CC2)cn1C", "survival": "inactive: 49%"}, {"smiles": "CC(C)CN(CC(C)C)c1nnc(NC(=O)Nc2cccc(C(F)(F)F)c2)s1", "survival": "inactive: 88%"}, {"smiles": "COc1ccc(OCC(=O)Nc2ccc3c(c2)N(C)C(=O)c2ccccc2S3)cc1", "survival": "inactive: 88%"}, {"smiles": "Cc1ccc2nc(Cl)c3cc(C(=O)N4CCCC(C)C4)sc3c2c1", "note": "(stereo unspecified)", "survival": "active: -7%"}, {"smiles": "CCn1c(=O)c2cc(C(=O)NCCc3ccc(OC)c(OC)c3)sc2c2ccccc21", "survival": "active: 42%"}, {"smiles": "CCOc1ccc(CNC(=O)c2ccc(Sc3ccc(C)cc3)c(N)c2)cc1OC", "survival": "inactive: 91%"}, {"smiles": "COc1ccc(-c2cc(C(=O)Nc3c(C(=O)c4ccc(C)c(F)c4)oc4ccccc34)no2)cc1", "survival": "inactive: 55%"}, {"smiles": "CC(C)NC(=O)Cn1c(=O)nc(-c2ccccc2)c2ccccc21", "survival": "inactive: 89%"}, {"smiles": "CCOc1ccc(CCNC(=O)c2ccc(C)c(-n3cnc4cccnc43)c2)cc1", "survival": "inactive: 94%"}, {"smiles": "Cc1ccc(S(=O)(=O)c2nc(-c3ccco3)oc2SCC(=O)c2ccc(Cl)cc2)cc1", "survival": "inactive: 63%"}, {"smiles": "O=C(CSc1ncn[nH]1)Nc1nccs1", "survival": "inactive: 90%"}, {"smiles": "CCOc1ccc(Nc2cc(C)c(C#N)c3nc4ccccc4n23)cc1", "survival": "inactive: 88%"}, {"smiles": "Cc1cccc(N(C)C(=O)CS(=O)(=O)c2cccc3nsnc23)c1", "survival": "inactive: 85%"}, {"smiles": "Cc1ccc(C(C)C)c(OCc2ccc(C(=O)Nc3ccc(S(N)(=O)=O)cc3C)o2)c1", "survival": "inactive: 49%"}, {"smiles": "COc1cccc(CNC(=O)c2ccc3c(Cl)c4c(nc3c2)CCCC4)c1", "survival": "active: 49%"}, {"smiles": "O=C(Nc1cccnc1)c1cccs1", "survival": "inactive: 80%"}, {"smiles": "COc1ccc(C(=O)NCc2nnc(SCC(=O)Nc3ccc(C)cc3)n2-c2ccccc2)cc1", "survival": "inactive: 119%"}, {"smiles": "CCc1ccc(CNC(=O)c2ccc(NC(=O)N3CCSc4ncccc43)cc2)cc1", "survival": "inactive: 70%"}, {"smiles": "CCc1nc2nc(C)cc(Nc3cc(Cl)ccc3OC)n2n1", "survival": "inactive: 69%"}, {"smiles": "O=C(CSc1nc2ccccc2c(=O)n1Cc1ccco1)N(c1ccccc1)c1ccccc1", "survival": "inactive: 102%"}, {"smiles": "Cc1ccc(S(=O)(=O)N2CCC(c3nnc(-c4cccc(C)c4)o3)CC2)cc1", "survival": "inactive: 76%"}, {"smiles": "Cc1cc(C(F)(F)F)n2nc(C(N)=O)cc2n1", "survival": "inactive: 89%"}, {"smiles": "CCOc1ccc(CNC(=O)CCc2c(C)nn(-c3ccc(N4CCOCC4)nn3)c2C)cc1", "survival": "inactive: 72%"}, {"smiles": "O=c1[nH]c2ccc(NS(=O)(=O)c3ccc(F)cc3)cc2s1", "survival": "inactive: 99%"}, {"smiles": "CCOc1ccc2nc(N3CCN(C(=O)C(C)C)CC3)sc2c1", "survival": "inactive: 84%"}, {"smiles": "COc1ccccc1/C=N\\NC(N)=S", "survival": "inactive: 60%"}, {"smiles": "CC1CCN(c2nn3c(=O)c(C(=O)NCCc4ccc(Cl)cc4)cnc3s2)CC1", "survival": "inactive: 69%"}, {"smiles": "COc1ccc2oc(=O)cc(CN3CCN(C(=O)c4ccccc4Br)CC3)c2c1", "survival": "active: 44%"}, {"smiles": "O=C(OCc1ccco1)c1ccc2c(c1)N(Cc1ccc([N+](=O)[O-])cc1)C(=O)c1ccccc1S2", "survival": "inactive: 83%"}, {"smiles": "c1ccc(N(c2ccccc2)c2nc(-n3nnc4ccccc43)nc(-n3nnc4ccccc43)n2)cc1", "survival": "inactive: 82%"}, {"smiles": "Cc1nc(-n2nc(C)c(CCC(C)C)c2C)sc1C(=O)Nc1cccc(Cl)c1C", "survival": "active: 56%"}, {"smiles": "CCOC(=O)c1c(NC(=O)c2ccccc2C)sc2c1CCCC2", "survival": "active: 12%"}, {"smiles": "Oc1ccccc1-c1nc(/C=C/c2ccccc2)nn1-c1ccccc1", "survival": "active: 7%"}, {"smiles": "O=C(CN1C(=O)COc2ccc(S(=O)(=O)N3CCCC3)cc21)NCCc1ccc(Cl)cc1", "survival": "inactive: 120%"}, {"smiles": "COc1ccc(CCNC(=O)Cn2c(=O)nc(-c3ccccc3F)c3cc(Cl)ccc32)cc1OC", "survival": "inactive: 91%"}, {"smiles": "O=C(C1CCC(CNS(=O)(=O)c2cccs2)CC1)N1CCN(c2ccc(Cl)cc2)CC1", "note": "(stereo unspecified)", "survival": "inactive: 60%"}, {"smiles": "Cc1ccc2[nH]c(CSc3nnc(C)s3)cc(=O)c2c1", "survival": "inactive: 81%"}, {"smiles": "Cc1cc(N)c(O)cc1C", "survival": "inactive: 61%"}, {"smiles": "COc1ccc(NC(=O)CSc2nnc(-c3nonc3NC(C)=O)n2C)cc1Cl", "survival": "inactive: 55%"}, {"smiles": "Cc1ccccc1-n1c2nc(=O)[nH]c(=O)c-2cc2c(Cl)cccc21", "survival": "inactive: 73%"}, {"smiles": "O=c1cc2nc(-c3ccccc3F)nc(SCc3ccc(Br)cc3)n2[nH]1", "survival": "active: 0%"}, {"smiles": "Cc1cccc(Cn2c(SCc3ccc(C(=O)NCc4cccs4)cc3)nc3cccnc32)c1", "survival": "inactive: 92%"}, {"smiles": "CC(C)c1ccc(NC(=O)c2cc(S(=O)(=O)NC3CCCCC3)ccc2F)cc1", "survival": "inactive: 102%"}, {"smiles": "COCCCN1C(=O)c2[nH]nc(-c3ccccc3O)c2C1c1ccc(OC)cc1", "note": "(stereo unspecified)", "survival": "inactive: 53%"}, {"smiles": "COc1ccc(Cl)cc1NC(=O)COC(=O)CC(C)(C)CC1=NS(=O)(=O)c2ccccc2N1", "survival": "inactive: 70%"}, {"smiles": "COC(=O)c1cc(C)nc2c1c(=O)nc(SCc1cccc(C(F)(F)F)c1)n2C1CC1", "survival": "inactive: 74%"}, {"smiles": "CCN(CC)CCCNC(=O)C(C)n1nc(C)n2c(cc3occc32)c1=O", "note": "(stereo unspecified)", "survival": "inactive: 88%"}, {"smiles": "Cc1c(Cl)cccc1NC(=O)CCn1cnnn1", "survival": "inactive: 83%"}, {"smiles": "CC1=C(C(=O)Nc2ccc(F)cc2)C(c2ccc(N(C)C)cc2)NC(=O)N1", "note": "(stereo unspecified)", "survival": "inactive: 140%"}, {"smiles": "CCC1CN(C(=O)C2CCN(S(=O)(=O)c3c(C)noc3/C=C/c3ccc(C)cc3)CC2)c2cc(C)ccc2O1", "note": "(stereo unspecified)", "survival": "inactive: 78%"}, {"smiles": "CCOc1ccc(CCNC(=O)Cn2ccc3cc(S(=O)(=O)N4CCCCCC4)ccc32)cc1", "survival": "inactive: 126%"}, {"smiles": "N=C1SCC(=O)N1c1nc(-c2ccccc2)cs1", "survival": "inactive: 75%"}, {"smiles": "COc1ccc(NC(=O)C(=O)c2cc(C)n(-c3ccc(C)cc3)c2C)cc1Cl", "survival": "inactive: 56%"}, {"smiles": "COCCNC(=O)CCn1c(=O)[nH]c2cc(OC)c(OC)cc2c1=O", "survival": "inactive: 90%"}, {"smiles": "COc1ccc(S(=O)(=O)Nc2ccc(S(=O)(=O)N3CCCC3)cc2)cc1C", "survival": "inactive: 78%"}, {"smiles": "NC(=O)C1CCN(C(=O)C2CCN(S(=O)(=O)c3ccc(-n4cnnn4)cc3)CC2)CC1", "survival": "inactive: 97%"}, {"smiles": "COc1ccc(N2CCN(c3ncnc4onc(C)c34)CC2)cc1", "survival": "inactive: 67%"}, {"smiles": "O=C(Nc1cc(-c2ccc(F)c(F)c2)no1)c1ccccc1F", "survival": "inactive: 66%"}, {"smiles": "Cc1cccc(N2CCN(C(=O)C3CCCN(C(=O)c4cc5sccc5n4C)C3)CC2)c1C", "note": "(stereo unspecified)", "survival": "active: 53%"}, {"smiles": "CCOc1ccccc1NC(=O)N1CCC(N2CCN(Cc3ccccc3)C(=O)C2=O)CC1", "survival": "inactive: 69%"}, {"smiles": "NC(=O)c1ccccc1NC(=O)CSc1nc(N)cc(=O)[nH]1", "survival": "inactive: 76%"}, {"smiles": "CCc1cc2c(-c3ccccc3)cc(=O)oc2c2c1OCN(Cc1ccc(C)cc1)C2", "survival": "inactive: 60%"}, {"smiles": "CC(Oc1ccccc1F)C(=O)N1CCC(c2nc3ccccc3o2)CC1", "note": "(stereo unspecified)", "survival": "active: -1%"}, {"smiles": "O=c1c2ccccc2nc(-c2ccc(Cl)cc2)n1CCCCOc1ccc(F)cc1", "survival": "active: 45%"}, {"smiles": "CNC(=S)N(CCN1CCOCC1)Cc1cc2cc(C)c(Cl)cc2[nH]c1=O", "survival": "inactive: 87%"}, {"smiles": "COc1ccccc1NC(=O)C1=C(C)Nc2nc(SCc3ccccc3)nn2C1c1cccs1", "note": "(stereo unspecified)", "survival": "inactive: 114%"}, {"smiles": "O=C(NCCc1ccc(Cl)cc1)c1ccc2c(c1)N(Cc1ccccc1)C(=O)CS2", "survival": "active: 25%"}, {"smiles": "Cc1ccc(NC(=O)CN2C(=O)c3ccccc3Sc3ncccc32)c(C)c1", "survival": "inactive: 96%"}, {"smiles": "Cc1ccc(NC(=O)c2sc3nc[nH]c(=O)c3c2C)cc1C", "survival": "inactive: 86%"}, {"smiles": "Cc1sc2ncnc(N3CCC(C)CC3)c2c1C", "survival": "inactive: 95%"}, {"smiles": "CCn1c(SCC(=O)Nc2cc(Cl)ccc2OC)nc2c([nH]c3ccccc32)c1=O", "survival": "inactive: 101%"}, {"smiles": "CC(=O)c1ccc(NC(=O)c2nn(C)c3c2COc2ccccc2-3)cc1", "survival": "inactive: 72%"}, {"smiles": "COc1ccc(CNC(=O)CCS(=O)(=O)c2cc3c4c(c2)CCN4C(=O)CC3)cc1", "survival": "inactive: 78%"}, {"smiles": "COC(=O)c1ccc(NC(=O)c2cc3cc4ccc(OC)c(Cl)c4nc3s2)cc1", "survival": "inactive: 98%"}, {"smiles": "Cn1cc(C(=O)N2CCN(c3ccccc3)CC2)c(=O)c2cc(S(=O)(=O)N3CCCC3)ccc21", "survival": "inactive: 133%"}, {"smiles": "O=C(NC1CC(=O)N(c2ccc(F)cc2)C1)C(c1ccccc1)c1ccccc1", "note": "(stereo unspecified)", "survival": "inactive: 124%"}, {"smiles": "COc1ccc(-c2noc(CSc3nnc(-c4ccncc4)n3-c3ccc(OC)cc3)n2)cc1", "survival": "inactive: 92%"}, {"smiles": "Cc1cccc(NC(=O)Cn2c(=O)oc3cc(S(=O)(=O)N4CCCCCC4)ccc32)c1", "survival": "inactive: 78%"}, {"smiles": "COC(=O)c1ccc(NC(=O)CCOc2ccccc2)cc1", "survival": "inactive: 69%"}, {"smiles": "Cc1ccc(Cn2c(Cc3ccccc3)nc3ccccc32)cc1", "survival": "active: -1%"}, {"smiles": "CN1C(=O)SC(N(CC(N)=O)c2ccccc2)C1=O", "note": "(stereo unspecified)", "survival": "inactive: 61%"}, {"smiles": "CCOc1ccc(CN2C(=O)c3ccccc3Sc3ccc(C(=O)NC4CCC(C)CC4)cc32)cc1", "note": "(stereo unspecified)", "survival": "inactive: 83%"}, {"smiles": "CCOC(=O)c1ccccc1NC(=O)CCc1c(C)nc2c(c1C)c(=O)n(C)c(=O)n2C", "survival": "inactive: 96%"}, {"smiles": "Cc1ccc(N(CC(=O)NCc2ccc(OC(C)C)cc2)S(=O)(=O)N(C)C)cc1", "survival": "inactive: 73%"}, {"smiles": "COc1ccccc1CCNC(=O)C1CCN(c2nc3ccccc3nc2C(F)(F)F)CC1", "survival": "inactive: 117%"}, {"smiles": "COC(=O)c1ccccc1NC(=O)CSc1c2c(nc3ccc(Cl)cc13)CCCC2", "survival": "inactive: 86%"}, {"smiles": "Cc1cc(C)c(S(=O)(=O)Nc2ccc(-c3ccc(N4CCCCC4)nn3)cc2)cc1C", "survival": "inactive: 54%"}]}]}
